Laboratory results as given in publication PMC4336329 (PLoS ONE, 2015).
The campaign covered roughly 310,000 compounds. About 2,200 (0.71%) showed an effect of 50% or more. Effects have a minus sign here. The list shows a part of the results.

target: human ether-à-go-go-related gene (hERG) potassium channel (human, UniProt Q12809); assay: primary screen, population patch clamp on CHO cells stably expressing hERG
Sequence (Q12809 whole entry, looked up): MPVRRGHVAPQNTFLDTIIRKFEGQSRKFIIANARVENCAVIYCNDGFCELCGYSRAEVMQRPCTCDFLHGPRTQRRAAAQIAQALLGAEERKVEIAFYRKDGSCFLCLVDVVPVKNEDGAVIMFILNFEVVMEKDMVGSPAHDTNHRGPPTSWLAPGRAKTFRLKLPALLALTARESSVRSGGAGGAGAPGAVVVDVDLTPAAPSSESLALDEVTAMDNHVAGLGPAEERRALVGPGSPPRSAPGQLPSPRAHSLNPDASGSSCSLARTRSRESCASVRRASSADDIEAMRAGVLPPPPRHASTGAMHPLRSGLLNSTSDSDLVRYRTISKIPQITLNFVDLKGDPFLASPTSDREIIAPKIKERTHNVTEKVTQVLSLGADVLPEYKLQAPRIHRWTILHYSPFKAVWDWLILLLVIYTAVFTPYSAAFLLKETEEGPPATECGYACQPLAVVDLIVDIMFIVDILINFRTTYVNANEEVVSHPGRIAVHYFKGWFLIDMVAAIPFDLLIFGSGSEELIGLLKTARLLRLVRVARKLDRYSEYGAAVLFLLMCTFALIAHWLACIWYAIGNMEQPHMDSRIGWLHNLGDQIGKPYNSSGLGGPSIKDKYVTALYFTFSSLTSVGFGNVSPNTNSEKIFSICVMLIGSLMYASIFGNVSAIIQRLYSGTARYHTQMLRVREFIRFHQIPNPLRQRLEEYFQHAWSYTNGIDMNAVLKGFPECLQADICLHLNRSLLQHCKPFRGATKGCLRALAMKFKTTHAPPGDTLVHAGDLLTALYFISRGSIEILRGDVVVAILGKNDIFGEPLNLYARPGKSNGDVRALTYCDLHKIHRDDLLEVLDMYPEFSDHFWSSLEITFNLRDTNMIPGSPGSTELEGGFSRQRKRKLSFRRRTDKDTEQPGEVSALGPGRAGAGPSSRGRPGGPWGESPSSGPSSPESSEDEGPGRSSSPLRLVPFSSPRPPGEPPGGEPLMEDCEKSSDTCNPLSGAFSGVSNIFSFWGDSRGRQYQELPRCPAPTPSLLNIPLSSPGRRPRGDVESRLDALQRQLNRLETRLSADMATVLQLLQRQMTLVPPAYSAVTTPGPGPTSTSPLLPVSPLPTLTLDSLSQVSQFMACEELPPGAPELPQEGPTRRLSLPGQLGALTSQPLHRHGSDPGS

SMILES | hERG current change (%, negative = inhibition) at 1uM [%]
COC(=O)c1c(NC(=O)COc2ccc(Cl)cc2Cl)sc2c1CC(C)(C)NC2(C)C | 12.5
Cc1cccc(C)c1NC(=O)CSc1nnc(C2CCCCC2)o1 | 6.3
c1coc(-c2nnc3n2C2(CCCC2)Cc2ccccc2-3)c1 | 15.1
COc1ccc(CCNC(=O)CNS(=O)(=O)c2ccc(F)c(Cl)c2)cc1OC | 10.6
Cc1ccccc1Nc1nc(N)nc(COC(=O)CC2CC3CCC2C3)n1 (centres unmarked) | 10.9
CC(C)CNC(=O)c1nn(Cc2ccccc2)c(=O)c2ccccc12 | 3.73
CCCCOC(=O)c1ccc(NC(=O)c2ccccc2OC)cc1 | 7.3
COc1ccc(C(=O)N2CCC(C(=O)N3CCN(c4ccccc4)CC3)CC2)cc1 | -24.6
O=C(NNC(=O)C1CCN(Cc2ccc(Cl)c(Cl)c2)CC1)c1cccs1 | 16.6
Cc1ccc(C(=O)NC(=S)NNC(=O)COc2ccccc2C)cc1 | 12.9
CCCCc1nc2ccccc2c(NC(=O)CN2CCCC2)c1CCC.O=C(O)C(=O)O | 6.89
O=C1c2ccccc2C(Nc2ccc(S(=O)(=O)N3CCOCC3)cc2)N1c1ccccn1 (centres unmarked) | 6.53
COc1ccc(CN2C(=O)NC(=O)/C(=C/c3ccc([N+](=O)[O-])s3)C2=O)cc1 | 18.9
CCn1nc(C)c(Br)c1-c1nc(-c2ccc(C)cc2)no1 | 11.9
c1ccc(Cn2nnnc2C(c2cccnc2)N2CCN(C3CCCCC3)CC2)cc1 (centres unmarked) | 0.0294
Cc1cc(OC(C)C(=O)NCCCN2CCCC2=O)c2c(C)c(C)c(=O)oc2c1 (centres unmarked) | 2.69
O=[N+]([O-])c1ccc(Cl)cc1Sc1ccccn1 | 14.3
Cc1cc(C)c(OCC(=O)Nc2nc3ccccc3[nH]2)c(C)c1 | 11.2
O=C(CSc1ccccc1)Nc1ccc2c(c1)C(=O)NC2=O | 4.61
O=C(CN(c1cccc([N+](=O)[O-])c1)S(=O)(=O)c1ccccc1)NCc1cccnc1 | -3.13
O=C(CCN1C(=O)c2ccccc2C1=O)Nc1ccc(S(=O)(=O)NC2=NCCCCC2)cc1 | 7.47
Cc1oc2cc3oc(=O)c(CCC(=O)NCCCn4ccnc4)c(C)c3cc2c1C | 7.61

SMILES | hERG current change (%, negative = inhibition) at 1uM [%]
O=C(NCC(=O)N1CCCCC1)c1ccc2ccccc2c1 | 21.1
Cc1ccc(SCCCn2cncn2)cc1 | 1.21
Cc1ccc(-c2[nH]ncc2/C=C(\C#N)C(=O)NC2CCCCC2)cc1 | 5.62
COc1ccc(S(=O)(=O)N2CCOC2CNC(=O)C(=O)NCc2ccccn2)cc1C (centres unmarked) | 13.9
COc1ccc(CNC(=O)C/C(C)=N/NC(=O)c2ccc(OC)cc2OC)cc1 | -5.79
O=C(CSc1ccccc1Cl)N1CCOCC1 | 9.02
N#CC1(NC(=O)COC(=O)c2ccc(-c3ccc(O)cc3)cc2)CCCCC1 | 5.27
O=C(Cc1ccccc1)NCC(=O)Nc1cccc(Cl)c1 | 15.2
O=C(NCCc1ccccc1)C1CCCN1C(=O)Nc1ccc(Cl)cc1 (centres unmarked) | 0.785
O=CN1Cc2ccccc2-c2ccccc2C1 | 15.4
COc1cc(C=O)ccc1Oc1nc(Nc2ccc(F)cc2F)nc(N2CCOCC2)n1 | 7.34
Cc1ccc(C(=O)N/N=C\c2ccc(OC(=O)c3cccs3)cc2)cn1 | 2.76
O=C(OCC(=O)N1CCN(S(=O)(=O)c2ccc(Cl)cc2)CC1)c1cccc(OC(F)F)c1 | -15.7
Cn1nnc(NC(=O)c2ccccc2)n1 | 4.2
CC(C)(C)C(=O)Nc1ccc(-c2cn3ccsc3n2)cc1 | 11.7
Cc1nc2c3ccccc3n(CCN3CCCCC3)c2s1.Cl | -4.03
O=C(N/N=C/c1cccc2ccccc12)c1cc(C2CC2)[nH]n1 | 9.35
CC(C)CC(CC(C)C)=NNC(=O)c1ccc2c(c1)OCO2 | 2.58
O=C(CN1C(=O)c2ccccc2C1=O)Nc1ccc(N2CCOCC2)cc1 | 2.07
COc1ccc(-c2cc(C(=O)Nc3ccc4c(c3)OCO4)no2)cc1OC | -7.17
CCn1c(=O)n(-c2ccc(Cl)cc2)c(=O)c2c3c(sc21)COC(C)(C)C3 | 11.2
Cc1ccsc1C(=O)OCC(=O)Nc1cccc(F)c1 | 9.41

SMILES | hERG current change (%, negative = inhibition) at 1uM [%]
O=C(Nc1cccc2ccccc12)/C(=C\c1cccc([N+](=O)[O-])c1)NC(=O)c1cccs1 | -67.7
CC(C)C(=O)N1CCN(c2ccccc2NC(=O)c2cccc(Cl)c2)CC1 | -24.6
O=C1NC(=O)/C(=C/c2cccc([N+](=O)[O-])c2)N1 | 10
CCN1CCN(c2nc3c(c(=O)[nH]c(=O)n3C)n2Cc2ccccc2)CC1 | 1.8
O=C(CSc1nc2ccccc2c(=O)n1-c1ccc(SC(F)F)cc1)Nc1ccc(N2CCOCC2)cc1 | 16.7
O=C(COC(=O)c1ccc(Br)cc1)Nc1cccnc1Cl | 8.98
CC(=O)C[C@H]1c2cc(C(F)(F)F)ccc2S(=O)(=O)N1c1ccc(N(C)C)cc1 | 3.16
CC(=O)c1ccc(OCCCCOc2ccc(C(C)=O)cc2)cc1 | 14.8
COc1ccc(N(CC(=O)N2CCN(c3ccc(F)cc3)CC2)S(=O)(=O)c2c(C)n[nH]c2C)cc1 | -18.5
Cl.O=C(/C=C/c1ccccc1)Nc1ccc(N2CCCCC2)cc1 | 11.3
CCN1CCN(c2c(C=O)c(Cl)nc3ccc(OC)cc23)CC1 | -14.9
CC(C)(C)C(=O)NC(=S)Nc1sc2c(c1C(N)=O)CCC2 | 11
Nc1nnc(SCC(=O)Nc2ccc(F)c(Cl)c2)n1-c1ccccc1 | -46.3
COCc1cc(C)n(CC(=O)Nc2cccc(C)c2)c(=O)c1C#N | 7.55
COc1ccc(C(CNC(=O)c2oc3cc(Br)ccc3c2C)N2CCCCC2)cc1 (centres unmarked) | 10.9
O=c1ccc2c([nH]1)CCCCCCCCCC2 | 15.6
COc1ccc(CC(=O)Nc2cc(S(=O)(=O)N3CCOCC3)ccc2N2CCOCC2)cc1 | 8.1
O=C(COC(=O)c1ccc(O)cc1)Nc1ccc(N2CCCCC2)cc1 | 6.91
CNC(=O)c1c(NC(=O)c2cccc(N3C(=O)CCC3=O)c2)sc2c1CCCC2 | 11.6
COc1cc2cc(Oc3ccc4ccc(=O)oc4c3)c(=O)oc2cc1OC1OC(COC(=O)CC(C)(O)CC(=O)O)C(O)C(O)C1O (centres unmarked) | 17
C#CCn1c(=NC(=O)c2ccc(S(=O)(=O)N3CCc4ccccc4C3)cc2)sc2cc(S(N)(=O)=O)ccc21 | 10.6
COc1cccc(COC(=O)C2CCN(C(=O)c3ccccc3C)CC2)c1OC | 12.2

SMILES | hERG current change (%, negative = inhibition) at 1uM [%]
O=C1NC(c2cc3ccccc3nc2Cl)Nc2ccccc21 (centres unmarked) | 2.51
CCOc1ccc(N(CC(=O)NC2CCCC2)C(=O)c2ccc(C)s2)cc1 | 8.88
C=CCC(NCc1ccco1)c1ccc(OC)c(OC)c1.Cl (centres unmarked) | 11
O=C(NCc1ccccc1)N(Cc1nc2ccccc2c(=O)[nH]1)C1CCCC1 | 7.46
C#CC[N+](C)(C)CCCCCCCCC.[Br-] | -10.2
CCCCOc1ccc(C(=O)OC2CC(C)N(C)CC2C)cc1 (centres unmarked) | 4.64
O=[N+]([O-])c1nn(-c2ccc3c(c2)OCCO3)n(O)c1=NC1CCCC1 | 18.3
C/C(N)=C(/C#N)C(=O)CSc1nnc(COc2cc(C)ccc2C)o1 | 16.1
CCOC(=O)c1cc(-c2nnc(SCC(=O)Nc3ccc(F)cc3)o2)c(C)nc1C | 5.8
Cc1nn(C)cc1CN(C)C(=O)c1nn2c(c1Cl)NC(c1cccs1)CC2C(F)(F)F (centres unmarked) | -8.45
CCN(CC)S(=O)(=O)c1ccc2c(c1)c(=O)c(C(=O)NCc1ccc3c(c1)OCO3)cn2C | 7.75
CSc1cc(-c2ccc(Cl)cc2)n(Cc2ccccc2)c(=O)c1C#N | 9.83
Cc1nnc(NC(=O)CSc2nnc(Cc3ccccc3)n2Cc2ccccc2)s1 | 4.59
O=C(CCCCCn1c(=O)[nH]c2ccccc2c1=O)NCCCN1CCN(c2ccccc2F)CC1 | -84.6
CCC(C)[C@@H](C(=O)Nc1ccc(OC)c(OC)c1)N1Cc2ccccc2C1=O (some centres unmarked) | 1.73
CC(C)NCC(=O)NC12CC3CC(CC(C3)C1)C2.Cl | 13.8
O=C(Oc1cccc(OC(=O)c2ccco2)c1)c1ccco1 | 17.6
CCN(CC)S(=O)(=O)c1cccc(C(=O)NC(Cc2c[nH]c3ccccc23)c2nnc3n2CCCCC3)c1 (centres unmarked) | 4.46
O=C(CCC1CCCNC1)c1ccccc1 (centres unmarked) | 12.3
Cc1cc(SCC(=O)OCC(=O)NCC2CCCO2)c(C)cc1Br (centres unmarked) | 23.8
